From the supplement of paper PMC9174493
Some of the results follow. Single values of this set are uncertain. Values with irradiation are relative to irradiated vehicle.

Legend:
A549-Dual [1] = assay: NF-kB reporter (SEAP) activity, viability-corrected, relative to vehicle (fold change vs vehicle); higher = more activation of STING-IRF / NF-kB immune response reporter; settings: 10 µM
A549-Dual [2] = assay: ISRE reporter (Lucia luciferase) activity, viability-corrected, relative to vehicle (fold change vs vehicle); higher = more activation of STING-IRF / NF-kB immune response reporter; settings: 10 µM
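Wherever NF-kB reporter (SEAP) activity, viability-corrected, relative to vehicle is given: viability correction based on the alamar blue assay, with concentrations leaving 10% survival or less dropped.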

SMILES	NF-kB reporter (A549-Dual [1]; irradiation: 8 Gy/4 fr)	NF-kB reporter (A549-Dual [1]; irradiation: none)	ISRE reporter (A549-Dual [2]; irradiation: 8 Gy/4 fr)	ISRE reporter (A549-Dual [2]; irradiation: none)
COc1cc2nc(N3CCN(C(=O)c4ccco4)CC3)nc(N)c2cc1OC [Prazosin]	1.48	2.44	1.29	4.21
CCCCCCCCCCCCCCCCCCOC(=O)CCCCCCCCCCCCCCC [Lanolin]	0.911	0.653	0.961	0.487
CCC1/C=C(\C)CC(C)CC(OC)C2OC(O)(C(=O)C(=O)N3CCCCC3C(=O)OC(/C(C)=C/C3CCC(O)C(OC)C3)C(C)C(O)CC1=O)C(C)CC2OC (stereo unspecified) [Ascomycin (FK520)]	0.753	1.08	0.785	2.75
CNCCC=C1c2ccccc2CCc2ccccc21.Cl [Nortriptyline hydrochloride]	0.498	0.665	0.442	0.71
Oc1cccc(O)c1O [Pyrogallol]	0.722	0.516	0.606	0.622
COC1C(OC(N)=O)C(O)C(Oc2ccc3c(O)c(NC(=O)c4ccc([O-])c(CC=C(C)C)c4)c(=O)oc3c2C)OC1(C)C.[Na+] (stereo unspecified) [Novobiocin Sodium]	0.874	1.09	0.545	0.481
OCc1cc(C(O)CNCCCCCCOCCCCc2ccccc2)ccc1O (stereo unspecified) [Salmeterol]	0.616	0.789	0.635	0.852
CCCCCCCCCC(=O)NC(Cc1c[nH]c2ccccc12)C(=O)NC(CC(N)=O)C(=O)NC(CC(=O)O)C(=O)NC1C(=O)NCC(=O)NC(CCCN)C(=O)NC(CC(=O)O)C(=O)NC(C)C(=O)NC(CC(=O)O)C(=O)NCC(=O)NC(CO)C(=O)NC(C(C)CC(=O)O)C(=O)NC(CC(=O)c2ccccc2N)C(=O)OC1C (stereo unspecified) [Daptomycin]	0.837	0.956	0.863	0.842
CC(C)NCC(O)c1ccc(O)c(O)c1.Cl (stereo unspecified) [Isoprenaline HCl]	1.08	1.32	1.04	1.08
CC1C(NC(=O)/C(=N\OC(C)(C)C(=O)O)c2csc(N)n2)C(=O)N1S(=O)(=O)O (stereo unspecified) [Aztreonam]	0.76	0.886	0.807	0.716
[Cl][Cs] [Cesium chloride]	0.749	1.16	0.685	0.949
OCC1OC(O)C(O)C(O)C1O [D-Mannose]	0.812	1.19	0.822	0.864
COc1ccccc1N1CCN(CC(O)COc2cccc3ccccc23)CC1 (stereo unspecified) [Naftopidil]	1.09	0.669	1.12	0.583
CCC(C)C(=O)OC1CC(O)C=C2C=CC(C)C(CCC(O)CC(O)CC(=O)[O-])C21.[Na+] (stereo unspecified) [Pravastatin sodium]	0.784	0.74	0.91	0.744
